Reference: patent publication US20210155701A1 (Chugai, published 2021)
Changes are numbered by the printed parent chain. Values belong to the binder of their own block, whether it stands above or below them.

Key:
[1] = biological target: T1, hsIL-6R-BAP1 (biotinylated hsIL-6R-Avitag) (human, UniProt P08887 20-357, biotin on the C-terminal AviTag sequence (SEQ ID NO: 36)); assay: BLI (Octet HTX), hsIL-6R-BAP1 on streptavidin sensor, sample without protease treatment, 30 degrees C
T1 construct: biotinylated by co-expressed BirA; also called biotinylated soluble human IL6R
T1 sequence: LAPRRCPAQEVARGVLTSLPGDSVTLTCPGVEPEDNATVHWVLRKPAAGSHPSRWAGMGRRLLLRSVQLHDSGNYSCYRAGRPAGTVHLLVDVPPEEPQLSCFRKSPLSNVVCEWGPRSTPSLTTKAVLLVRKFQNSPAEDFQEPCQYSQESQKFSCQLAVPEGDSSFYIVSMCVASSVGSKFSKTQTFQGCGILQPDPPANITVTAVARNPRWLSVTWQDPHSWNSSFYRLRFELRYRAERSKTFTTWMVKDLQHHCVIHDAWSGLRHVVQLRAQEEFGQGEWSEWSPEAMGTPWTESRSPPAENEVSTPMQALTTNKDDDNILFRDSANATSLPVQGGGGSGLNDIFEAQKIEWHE

biotinylated plexin A1 = biological target: T2, biotinylated plexin A1 (human, UniProt Q9UIW2 27-1253, biotin on the AviTag sequence (SEQ ID NO: 36)); assay: BLI (Octet) as in Example 3
T2 construct: also called biotin-labeled human plexin A1; human plexin A1

B1: IL6R90H1006/VK1-39-k0MT (without protease treatment) (antibody, human IgG1, kappa)
heavy: EVQLVESGGGLVQPGGSLRLSCAASGFTFDDYGMSWVRQAPGKALEWVSAISWNGNNTYYTESMKGRFTISRDNAKNTLYLQMNSLRPEDTAVYYCVKGSTAIVGVPPTYPDEYDYWGQGTLVTVSSASTKSGGSGLSGRSDNHGSSGGGPSVFPLAPSSKSTSGGTAALGCLVKDYFPEPVTVSWNSGALTSGVHTFPAVLQSSGLYSLSSVVTVPSSSLGTQTYICNVNHKPSNTKVDKKV[sequence of human IgG1 Fc not given]
light: DIQMTQSPSSLSASVGDRVTITCRASQSISSYLNWYQQKPGKAPKLLIYAASSLQSGVPSRFSGSGSGTDFTLTISSLQPEDFATYYCLQFDSYPLTFGGGTKVEIKRTVAAPSVFIFPPSDEQLKSGTASVVCLLNNFYPREAKVQWKVDNALQSGNSQESVTEQDSKDSTYSLSSTLTLSKADYEKHKVYACEVTHQGLSSPVTKSFNRGEC
notes: Uncleaved IgG antibody-like molecule
binding result [1]: no binding

B2: IL6R90H1002/VK1-39-k0MT (without protease treatment) (antibody, human IgG1, kappa)
heavy: EVQLVESGGGLVQPGGSLRLSCAASGFTFDDYGMSWVRQAPGKALEWVSAISWNGNNTYYTESMKGRFTISRDNAKNTLYLQMNSLRPEDTAVYYCVKGSTAIVGVPPTYPDEYDYWGQGTLVTVSSASSGGSGLSGRSDNHGSSGGTKGPSVFPLAPSSKSTSGGTAALGCLVKDYFPEPVTVSWNSGALTSGVHTFPAVLQSSGLYSLSSVVTVPSSSLGTQTYICNVNHKPSNTKVDKKV[sequence of human IgG1 Fc not given]
light: B1 light
notes: uncleaved
binding result [1]: no binding

B3: IL6R90H1005/VK1-39-k0MT (without protease treatment) (antibody, human IgG1, kappa)
heavy: EVQLVESGGGLVQPGGSLRLSCAASGFTFDDYGMSWVRQAPGKALEWVSAISWNGNNTYYTESMKGRFTISRDNAKNTLYLQMNSLRPEDTAVYYCVKGSTAIVGVPPTYPDEYDYWGQGTLVTVSSASTKLSGRSDNHGGPSVFPLAPSSKSTSGGTAALGCLVKDYFPEPVTVSWNSGALTSGVHTFPAVLQSSGLYSLSSVVTVPSSSLGTQTYICNVNHKPSNTKVDKKV[sequence of human IgG1 Fc not given]
light: B1 light
notes: as for B1
binding result [1]: no binding

B4: IL6R90H1004/VK1-39-k0MT (without protease treatment) (antibody, human IgG1, kappa)
heavy: EVQLVESGGGLVQPGGSLRLSCAASGFTFDDYGMSWVRQAPGKALEWVSAISWNGNNTYYTESMKGRFTISRDNAKNTLYLQMNSLRPEDTAVYYCVKGSTAIVGVPPTYPDEYDYWGQGTLVTVSGGSGLSGRSDNHGSSGGSS[sequence of human IgG1 constant region not given]
light: B1 light
notes: as for B1
binding result [1]: no binding

The next lines start with the values.

binding result (biotinylated plexin A1): no binding
B5: PX02-R2_001-G1mISHI01/VK1-39-k0MT (before protease treatment) (antibody, human IgG1, kappa)
heavy: QLQLVESGGGLVQPGGSLRLSCTASGISFSISTMGWYRQAPGKQRELVATITSGGEAYYANSMKDRFTISRDNAENTVYLQMNRLKPEDSAVYYCNTKFPWSTDWDSRGQGTQVTVSGGSGLSGRSDNHGSSGGSS[sequence of human IgG1 constant region not given]
light: B1 light
notes: as for B1

binding result (biotinylated plexin A1): no binding
B6: PX02-R4_004-G1mISHI01/VK1-39-k0MT (before protease treatment) (antibody, human IgG1, kappa)
heavy: B5 heavy with L2V
light: B1 light
notes: Uncleaved
